The supplement of paper PMC10126150
Sequences with one replicate were seen in a single cluster, so their values are uncertain.

Tested on: ATP
Experiment: switch fluorescence ratio, 500 uM ATP over buffer (Cy3 cluster intensity, sum of 5 cycles each) (fold (ratio)); higher = stronger signal-on switching upon ATP binding; sequences stand for … in TCGTCGGCAGCGTCAGATGTGTATAAGAGACAGTTTTTTTTTTTTTTTTTTTTTTTTT…TC
Conditions: aptamer strand: ATP DNA aptamer (quencher-CACCTGGGGGAGTATTGCGGAGGAAGG + anchor), 100 nM annealed; ATP concentration: 500 uM; one replicate
How it was run: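 Values give the fluorescence ratio for each switch-domain sequence, averaged from per-cluster ratios of summed target-cycle to summed buffer-cycle Cy3 intensity. The Cy3-labelled switching-strand clusters sat on a modified Illumina MiSeq flow-cell, were annealed to 100 nM quencher-labelled ATP aptamer, and were imaged in selection buffer, then after 15 min with 500 uM ATP at 22 °C. Five cycles ran with NaOH stripping and re-annealing between them, and clusters outside 100-1000 RFU were excluded.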
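Further: ATP exposure 15 min at 22 °C before imaging.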

Row | Sequence | switch fluorescence ratio
1 | CATGCTCGAG | 0.997
2 | CATGGATTAG | 1.03
3 | CATGGGCTTC | 0.965
4 | CATGGTATGG | 0.953
5 | CATGTATTC | 0.933
6 | CATGTCGGGA | 0.999
7 | CATGTCTGGT | 0.973
8 | CATGTGAACC | 1.01
9 | CATGTGAGAA | 1.01
10 | CATGTGTAGC | 0.99
11 | CATGTGTGGC | 1.02
12 | CATGTTACCG | 1.03
13 | CATGTTACT | 0.988
14 | CATGTTGTGG | 0.986
15 | CATGTTTAGC | 0.992
16 | CATTAGGCTA | 1.02
17 | CATTATAATA | 1
18 | CATTATCATG | 0.996
19 | CATTATTATC | 0.974
20 | CATTATTTCC | 1.12
21 | CATTATTTCT | 0.987
22 | CATTCACCTG | 1
23 | CATTCCCAAC | 1.22
24 | CATTCCGGGC | 1.65
25 | CATTCCTGCT | 1.04

Row | Sequence | switch fluorescence ratio
26 | CATTCGATTA | 1.05
27 | CATTCTCGTG | 0.973
28 | CATTCTTTGT | 0.95
29 | CATTGACTCT | 0.971
30 | CATTGACTTG | 1.01
31 | CATTGATGTA | 1.02
32 | CATTGATTCT | 0.954
33 | CATTGGAATT | 0.986
34 | CATTGGATGG | 1.01
35 | CATTGTAGAG | 0.969
36 | CATTGTGAGC | 0.993
37 | CATTGTGGTG | 1
38 | CATTTAACCG | 1
39 | CATTTAGCCT | 1.08
40 | CATTTCGATC | 0.992
41 | CATTTGACTA | 1.02
42 | CATTTTCGCA | 1.01
43 | CATTTTGTTA | 0.991
44 | CATTTTTGTC | 0.998
45 | CCAAAATTAA | 1
46 | CCAAACGTCT | 1.05
47 | CCAAAGATGG | 1.01
48 | CCAAAGCAAA | 5.12
49 | CCAAATACGA | 2.22
50 | CCAAATCTCA | 1.06

Row | Sequence | switch fluorescence ratio
51 | CCAAATGTTC | 0.997
52 | CCAACAGGG | 1.59
53 | CCAACTACCT | 1.28
54 | CCAAGACCTG | 1
55 | CCAAGATGAG | 1
56 | CCAAGCGCA | 1.61
57 | CCAAGGTCGA | 1.03
58 | CCAATAGGAG | 1.06
59 | CCAATATGGG | 1.08
60 | CCAATCATTC | 1.1
61 | CCAATCGGTT | 1.01
62 | CCAATCGTGT | 1.04
63 | CCAATGCGCC | 1.58
64 | CCAATTGAT | 1
65 | CCAATTGATC | 1.01
66 | CCAATTTCTT | 1.04
67 | CCAATTTTTC | 0.944
68 | CCACAAGAGG | 1.12
69 | CCACACGCAG | 1.71
70 | CCACAGTCGG | 1.08
71 | CCACATGCCA | 1.04
72 | CCACATTATC | 1.51
73 | CCACCGTGCG | 1.39
74 | CCACCTTGAA | 0.995
75 | CCACGACC | 1.03

Row | Sequence | switch fluorescence ratio
76 | CCACGAGGGT | 1.01
77 | CCACGATGTT | 1.03
78 | CCACGCCACG | 1.55
79 | CCACGCCGAC | 2.54
80 | CCACGCTTT | 1.31
81 | CCACGCTTTG | 1.07
82 | CCACGGCAAG | 2.4
83 | CCACGTCGCT | 1.01
84 | CCACGTGTCG | 0.989
85 | CCACTCATTT | 1.03
86 | CCACTCCCGC | 1.42
87 | CCACTTAGGT | 1.06
88 | CCAGAAACCA | 1.07
89 | CCAGAAAGGC | 1.28
90 | CCAGACGCCG | 0.889
91 | CCAGAGAGAC | 1.16
92 | CCAGAGGATG | 0.963
93 | CCAGAGTTGT | 1.07
94 | CCAGATAGTC | 1.04
95 | CCAGATGTTC | 0.997
96 | CCAGATTCCG | 1.07
97 | CCAGCCCCAA | 1.55
98 | CCAGCCTAGA | 0.95
99 | CCAGCGAGCA | 1.04
100 | CCAGCTCTAA | 1.08
